# The supplement of paper PMC8728848
# This is one part of the list.
# What was measured:
# Test in all cases: glycan array binding signal (z-score within array); higher = stronger binding
# Conditions in all cases: glycan notation: IUPAC condensed, linker removed
# [1] = target: Fuc(a1-2)Gal
# Procedure, shortened: (§1)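 The binding signal is a Z-score computed within each array and averaged over linkers. Arrays of the same protein sequence at different concentrations or buffers were also averaged together. Data originate from 3228 arrays in the Consortium for Functional Glycomics database, kept only where the protein sequence was available.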
# [2] = target: Fuc(a1-2)Gal(b1-3)GalNAc
# Procedure, shortened: as §1
# [3] = target: Fuc(a1-2)Gal(b1-3)GalNAc(a1-3)[Fuc(a1-2)]Gal(b1-4)Glc
# Procedure, shortened: as §1
# [4] = target: Fuc(a1-2)Gal(b1-3)GalNAc(a1-3)[Fuc(a1-2)]Gal(b1-4)GlcNAc
# Procedure, shortened: as §1
# [5] = target: Fuc(a1-2)Gal(b1-3)GalNAc(b1-3)Gal
# Procedure, shortened: as §1
# [6] = target: Fuc(a1-2)Gal(b1-3)GalNAc(b1-3)Gal(a1-4)Gal(b1-4)Glc
# Procedure, shortened: as §1
# [7] = target: Fuc(a1-2)Gal(b1-3)GalNAc(b1-4)[Neu5Ac(a2-3)]Gal(b1-4)Glc
# Procedure, shortened: as §1
# [8] = target: Fuc(a1-2)Gal(b1-3)GlcNAc
# Procedure, shortened: as §1
# [9] = target: Fuc(a1-2)Gal(b1-3)GlcNAc(b1-2)Man(a1-3)[Fuc(a1-2)Gal(b1-3)GlcNAc(b1-2)Man(a1-6)]Man(b1-4)GlcNAc(b1-4)GlcNAc
# Procedure, shortened: as §1
# [10] = target: Fuc(a1-2)Gal(b1-3)GlcNAc(b1-2)Man(a1-3)[Fuc(a1-2)Gal(b1-3)GlcNAc(b1-2)Man(a1-6)]Man(b1-4)GlcNAc(b1-4)[Fuc(a1-6)]GlcNAc
# Procedure, shortened: as §1
# [11] = target: Fuc(a1-2)Gal(b1-3)GlcNAc(b1-3)Gal(b1-4)Glc
# Procedure, shortened: as §1
# [12] = target: Fuc(a1-2)Gal(b1-3)GlcNAc(b1-3)GalNAc
# Procedure, shortened: as §1
# [13] = target: Fuc(a1-2)Gal(b1-3)GlcNAc(b1-3)[Fuc(a1-2)Gal(b1-3)GlcNAc(b1-6)]GalNAc
# Procedure, shortened: as §1
# [14] = target: Fuc(a1-2)Gal(b1-3)GlcNAc(b1-3)[Gal(b1-4)GlcNAc(b1-6)]Gal(b1-4)Glc
# Procedure, shortened: as §1
# [15] = target: Fuc(a1-2)Gal(b1-3)GlcNAc(b1-3)[Neu5Ac(a2-6)Gal(b1-4)GlcNAc(b1-6)]Gal(b1-4)Glc
# Procedure, shortened: as §1
# [16] = target: Fuc(a1-2)Gal(b1-3)GlcNAc6S
# Procedure, shortened: as §1
# [17] = target: Fuc(a1-2)Gal(b1-3)[Fuc(a1-4)]GlcNAc
# Procedure, shortened: as §1
# [18] = target: Fuc(a1-2)Gal(b1-3)[Fuc(a1-4)]GlcNAc(b1-2)Man(a1-3)[Fuc(a1-2)Gal(b1-3)[Fuc(a1-4)]GlcNAc(b1-2)Man(a1-3)]Man(b1-4)GlcNAc(b1-4)GlcNAc
# Procedure, shortened: as §1
# [19] = target: Fuc(a1-2)Gal(b1-3)[Fuc(a1-4)]GlcNAc(b1-2)Man(a1-3)[Fuc(a1-2)Gal(b1-3)[Fuc(a1-4)]GlcNAc(b1-2)Man(a1-6)]Man(b1-4)GlcNAc(b1-4)[Fuc(a1-6)]GlcNAc(b1-4)[Fuc(a1-6)]GlcNAc
# Procedure, shortened: as §1
# [20] = target: Fuc(a1-2)Gal(b1-3)[Fuc(a1-4)]GlcNAc(b1-3)[Fuc(a1-3)[Gal(b1-4)]GlcNAc(b1-6)]Gal(b1-4)Glc
# Procedure, shortened: as §1
# [21] = target: Fuc(a1-2)Gal(b1-3)[Fuc(a1-4)]GlcNAc(b1-3)[Gal(b1-4)GlcNAc(b1-6)]Gal(b1-4)Glc
# Procedure, shortened: as §1
# [22] = target: Fuc(a1-2)Gal(b1-4)Glc
# Procedure, shortened: as §1
# [23] = target: Fuc(a1-2)Gal(b1-4)Glc6S
# Procedure, shortened: as §1
# [24] = target: Fuc(a1-2)Gal(b1-4)GlcNAc
# Procedure, shortened: as §1
# [25] = target: Fuc(a1-2)Gal(b1-4)GlcNAc(b1-2)Man
# Procedure, shortened: as §1
# [26] = target: Fuc(a1-2)Gal(b1-4)GlcNAc(b1-2)Man(a1-3)[Fuc(a1-2)Gal(b1-4)GlcNAc(b1-2)Man(a1-6)]Man(b1-4)GlcNAc(b1-4)GlcNAc
# Procedure, shortened: as §1
# [27] = target: Fuc(a1-2)Gal(b1-4)GlcNAc(b1-2)Man(a1-3)[Fuc(a1-2)Gal(b1-4)GlcNAc(b1-2)Man(a1-6)]Man(b1-4)GlcNAc(b1-4)[Fuc(a1-6)]GlcNAc
# Procedure, shortened: as §1
# [28] = target: Fuc(a1-2)Gal(b1-4)GlcNAc(b1-2)[Fuc(a1-2)Gal(b1-4)GlcNAc(b1-4)]Man(a1-3)[Fuc(a1-2)Gal(b1-4)GlcNAc(b1-2)Man(a1-6)]Man(b1-4)GlcNAc(b1-4)GlcNAc
# Procedure, shortened: as §1
# [29] = target: Fuc(a1-2)Gal(b1-4)GlcNAc(b1-3)Gal(b1-4)GlcNAc
# Procedure, shortened: as §1
# [30] = target: Fuc(a1-2)Gal(b1-4)GlcNAc(b1-3)Gal(b1-4)GlcNAc(b1-2)Man(a1-3)[Fuc(a1-2)Gal(b1-4)GlcNAc(b1-3)Gal(b1-4)GlcNAc(b1-2)Man(a1-6)]Man(b1-4)GlcNAc(b1-4)GlcNAc
# Procedure, shortened: as §1
binder,measurement,setting,value
OGAN (protein) MVQKESQATLEERESELSSNPAASAGASLEPPAAPAPGEDNPAGAGGAAVAGAAGGARRFLCGVVEGFYGRPWVMEQRKELFRRLQKWELNTYLYAPKDDYKHRMFWREMYSVEEAEQLMTLISAAREYEIEFIYAISPGLDITFSNPKEVSTLKRKLDQVSQFGCRSFALLFNDIDHNMCAADKEVFSSFAHAQVSITNEIYQYLGEPETFLFCPTEYCGTFCYPNVSQSPYLRTVGEKLLPGIEVLWTGPKVVSKEIPVESIEEVSKIIKRAPVIWDNIHANDYDQKRLFLGPYKGRSTELIPRLKGVLTNPNCEFEANYVAIHTLATWYKSNMNGVRKDVVMTDSEDSTVSIQIKLENEGSDEDIETDVLYSPQMALKLALTEWLQEFGVPHQY,glycan array binding signal (z-score),[1],-0.012
same,glycan array binding signal (z-score),[2],-0.067
same,glycan array binding signal (z-score),[3],-0.034
same,glycan array binding signal (z-score),[4],-0.068
same,glycan array binding signal (z-score),[5],-0.03
same,glycan array binding signal (z-score),[6],-0.088
same,glycan array binding signal (z-score),[7],-0.049
same,glycan array binding signal (z-score),[8],-0.028
same,glycan array binding signal (z-score),[9],-0.053
same,glycan array binding signal (z-score),[10],0.009
same,glycan array binding signal (z-score),[11],-0.054
same,glycan array binding signal (z-score),[12],-0.052
same,glycan array binding signal (z-score),[13],-0.075
same,glycan array binding signal (z-score),[14],-0.046
same,glycan array binding signal (z-score),[15],-0.068
same,glycan array binding signal (z-score),[16],-0.045
same,glycan array binding signal (z-score),[17],-0.077
same,glycan array binding signal (z-score),[18],0.055
same,glycan array binding signal (z-score),[19],-0.053
same,glycan array binding signal (z-score),[20],-0.073
same,glycan array binding signal (z-score),[21],-0.044
same,glycan array binding signal (z-score),[22],-0.067
same,glycan array binding signal (z-score),[23],-0.026
same,glycan array binding signal (z-score),[24],-0.076
same,glycan array binding signal (z-score),[25],-0.042
same,glycan array binding signal (z-score),[26],-0.01
same,glycan array binding signal (z-score),[27],-0.047
same,glycan array binding signal (z-score),[28],-0.036
same,glycan array binding signal (z-score),[29],-0.06
same,glycan array binding signal (z-score),[30],-0.022
